# Data taken from patent US10299477B2 (priority 2015, dated 2019).
# Assays:
# Assay type in all cases: in vivo
# Alternaia brassicicola = assay: Test Example C: Alternaria sooty spot on cabbage; settings: for Test C (control value class, Alternaria sooty spot on cabbage): in vivo; for Test C (control value class) / Test C control value: Alternaria sooty spot on cabbage; for Test C control value (Alternaria sooty spot on cabbage): preventive, control value class
# Text: [Test Example C] Alternaria Sooty Spot on Cabbage
# Seeds of a test plant (cabbage variety: Shikidori) were planted followed by cultivating until the cotyledons extended.
# Botrytis cinerea = assay: Test Example B: Gray mold on tomato; settings: for Test B (control value class, gray mold on tomato): in vivo; for Test B control value (gray mold on tomato): preventive, control value class
# Text: [Test Example B] Gray Mold on Tomato
# Seeds of a test plant (tomato variety: Oogata Fukuju) were planted followed by cultivating until three to five first leaves (true leaves) appeared.
# Puccinia recondita = assay: Test Example E: Brown rust on wheat; settings: for Test E (control value class, brown rust on wheat): in vivo; for Test E control value (brown rust on wheat): preventive, control value class
# Text: [Test Example E] Brown Rust on Wheat
# [1] = tested on: Blumeria graminis f sp. hordei; assay: Test Example D: Powdery mildew on barley; settings: for Test D (control value class, powdery mildew on barley): in vivo; for Test D control value (powdery mildew on barley): preventive, control value class
# Text: [Test Example D] Powdery Mildew on Barley
# After the sprayed dilutions were dried, conidia of Blumeria graminis f sp. hordei were inoculated to the plants by shaking off.
# Plasmopara viticola = assay: Test Example G: Downy mildew on vine; settings: for Test G (control value class, downy mildew on vine): 250 ppm, sprayed 2.5 ml/pot before inoculation; for Test G (control value class): 250 ppm spray; for Test G control value (downy mildew on vine): 250 ppm spray (2.5 ml/pot), preventive, control value class; for Test G control value: 250 ppm sprayed before inoculation
# Text: [Test Example G] Downy Mildew on Vine
# Seeds of a test plant (grape variety: Neomuscat) were planted followed by cultivating until three to four first leaves appeared. […] After the sprayed dilutions were dried, a zoosporangia suspension (1-2×10^4 zoosporangia/ml) of Plasmopara viticola was inoculated to the plants by spraying.
# [2] = evaluated 7-10 days after inoculation
# [3] = gray mold on tomato, Botrytis cinerea, 250 ppm spray
# [4] = brown rust on wheat, Puccinia recondita, 250 ppm spray
# [5] = powdery mildew on barley, 250 ppm spray
# [6] = downy mildew on vine, Plasmopara viticola, 7-10 days after inoculation
# [7] = Downy mildew on vine, 7-10 days after inoculation
# [8] = Gray mold on tomato, control value=100{1-(n/3)}
# [9] = Brown rust on wheat, control value=100{1-(n/3)}
# [10] = Powdery mildew on barley, control value=100{1-(n/3)}
# [11] = Downy mildew on vine, 2.5 ml/pot, evaluated 7-10 days after inoculation
smiles,measurement,setting,value
Cn1c(-c2c(F)cc(Cl)cc2F)c(-c2cc(F)ccc2Cl)cc(Cl)c1=O [Compound 605],"Test C (control value class, Alternaria sooty spot on cabbage)",Alternaia brassicicola,H (H shows more than 50% of control values)
same,"Test B (control value class, gray mold on tomato)",Botrytis cinerea,H (H shows more than 50% of control values)
same,"Test E (control value class, brown rust on wheat)",Puccinia recondita,H (H shows more than 50% of control values)
same,"Test D (control value class, powdery mildew on barley)",[1],H (H shows more than 50% of control values)
same,"Test G (control value class, downy mildew on vine)",Plasmopara viticola; [2],L (L shows 50% or less of control values)
O=c1c(Cl)cc(-c2cc(F)cc(F)c2Cl)c(-c2c(F)cccc2F)n1CC(F)F [Compound 556],Test C (control value class),Alternaia brassicicola; 250 ppm spray,H (H shows more than 50% of control values)
same,Test B (control value class),Botrytis cinerea; [3],H (H shows more than 50% of control values)
same,Test E (control value class),Puccinia recondita; [4],H (H shows more than 50% of control values)
same,Test D (control value class),[1]; [5],H (H shows more than 50% of control values)
same,Test G (control value class),Plasmopara viticola; [6],L (L shows 50% or less of control values)
CCn1c(-c2c(F)cc(F)cc2F)c(-c2cc(F)ccc2F)ccc1=O [Compound 424],Test C (control value class),Alternaia brassicicola; 250 ppm spray,H (H shows more than 50% of control values)
same,Test B (control value class),Botrytis cinerea; [3],H (H shows more than 50% of control values)
same,Test E (control value class),Puccinia recondita; [4],H (H shows more than 50% of control values)
same,Test D (control value class),[1]; [5],H (H shows more than 50% of control values)
same,Test G (control value class),Plasmopara viticola; [6],L (L shows 50% or less of control values)
"COc1ccc(Cl)c(C2=C(c3c(F)cccc3F)N(CC(F)F)C(=O)CC2)c1 [Compound 192, 5-(2-chloro-5-methoxyphenyl)-1-(2,2-difluoroethyl)-6-(2,6-difluorophenyl)-3,4-dihydropyridine-2(1H)-one]",Test C control value (Alternaria sooty spot on cabbage),Alternaia brassicicola; 250 ppm spray,L (L shows 50% or less of control values)
same,Test B control value (gray mold on tomato),Botrytis cinerea; 250 ppm spray,H (H shows more than 50% of control values)
same,Test E control value (brown rust on wheat),Puccinia recondita; 250 ppm spray,H (H shows more than 50% of control values)
same,Test D control value (powdery mildew on barley),[1]; 250 ppm spray,H (H shows more than 50% of control values)
same,Test G control value (downy mildew on vine),Plasmopara viticola; 7-10 days after inoculation,L (L shows 50% or less of control values)
Cn1c(-c2c(F)cccc2F)c(-c2ccccc2C(F)(F)F)cc(Br)c1=O [Compound 159],Test C control value,Alternaia brassicicola,L (L shows 50% or less of control values)
same,Test B control value,Botrytis cinerea; Gray mold on tomato,L (L shows 50% or less of control values)
same,Test E control value,Puccinia recondita; Brown rust on wheat,H (H shows more than 50% of control values)
same,Test D control value,[1]; Powdery mildew on barley,L (L shows 50% or less of control values)
same,Test G control value,Plasmopara viticola; [7],L (L shows 50% or less of control values)
COc1ccc(Cl)c(-c2cc(Br)c(=O)n(CC(F)(F)F)c2-c2c(F)cccc2F)c1 [Compound 411],Test C (control value class),Alternaia brassicicola; 250 ppm spray,H (H shows more than 50% of control values)
same,Test B (control value class),Botrytis cinerea; [3],H (H shows more than 50% of control values)
same,Test E (control value class),Puccinia recondita; [4],H (H shows more than 50% of control values)
same,Test D (control value class),[1]; [5],H (H shows more than 50% of control values)
same,Test G (control value class),Plasmopara viticola; [6],L (L shows 50% or less of control values)
CCOc1ccc(Cl)c(-c2cc(Cl)c(=O)n(CC)c2-c2c(F)cccc2F)c1 [Compound 376],Test C (control value class),Alternaia brassicicola; 250 ppm spray,H (H shows more than 50% of control values)
same,Test B (control value class),Botrytis cinerea; [3],H (H shows more than 50% of control values)
same,Test E (control value class),Puccinia recondita; [4],H (H shows more than 50% of control values)
same,Test D (control value class),[1]; [5],H (H shows more than 50% of control values)
same,Test G (control value class),Plasmopara viticola; [6],H (H shows more than 50% of control values)
Cn1c(-c2c(F)cccc2F)c(-c2cccc(F)c2)cc(Br)c1=O [Compound 170],Test C control value,Alternaia brassicicola,H (H shows more than 50% of control values)
same,Test B control value,Botrytis cinerea; Gray mold on tomato,H (H shows more than 50% of control values)
same,Test E control value,Puccinia recondita; Brown rust on wheat,H (H shows more than 50% of control values)
same,Test D control value,[1]; Powdery mildew on barley,H (H shows more than 50% of control values)
same,Test G control value,Plasmopara viticola; [7],H (H shows more than 50% of control values)
CCn1c(-c2c(F)cccc2F)c(-c2cccc(C(F)(F)F)c2)ccc1=O [Compound 284],Test C control value (Alternaria sooty spot on cabbage),Alternaia brassicicola; 250 ppm spray,L (L shows 50% or less of control values)
same,Test B control value (gray mold on tomato),Botrytis cinerea; 250 ppm spray,H (H shows more than 50% of control values)
same,Test E control value (brown rust on wheat),Puccinia recondita; 250 ppm spray,L (L shows 50% or less of control values)
same,Test D control value (powdery mildew on barley),[1]; 250 ppm spray,H (H shows more than 50% of control values)
same,Test G control value (downy mildew on vine),Plasmopara viticola; 7-10 days after inoculation,L (L shows 50% or less of control values)
Cn1c(-c2c(F)cccc2F)c(-c2cc(OCC3OCCO3)ccc2Cl)ccc1=O [Compound 316],Test C control value (Alternaria sooty spot on cabbage),Alternaia brassicicola; 250 ppm spray,L (L shows 50% or less of control values)
same,Test B control value (gray mold on tomato),Botrytis cinerea; 250 ppm spray,H (H shows more than 50% of control values)
same,Test E control value (brown rust on wheat),Puccinia recondita; 250 ppm spray,H (H shows more than 50% of control values)
same,Test D control value (powdery mildew on barley),[1]; 250 ppm spray,H (H shows more than 50% of control values)
same,Test G control value (downy mildew on vine),Plasmopara viticola; 7-10 days after inoculation,L (L shows 50% or less of control values)
CCn1c(-c2c(F)cc(F)cc2F)c(-c2ccc(F)cc2Cl)ccc1=O [Compound 575],"Test C (control value class, Alternaria sooty spot on cabbage)",Alternaia brassicicola,H (H shows more than 50% of control values)
same,"Test B (control value class, gray mold on tomato)",Botrytis cinerea,H (H shows more than 50% of control values)
same,"Test E (control value class, brown rust on wheat)",Puccinia recondita,H (H shows more than 50% of control values)
same,"Test D (control value class, powdery mildew on barley)",[1],H (H shows more than 50% of control values)
same,"Test G (control value class, downy mildew on vine)",Plasmopara viticola; [2],H (H shows more than 50% of control values)
CCn1c(-c2c(F)cc(F)cc2F)c(-c2cc(F)cc(F)c2Br)cc(Br)c1=O [Compound 814],Test C (control value class),Alternaia brassicicola; control value=100{1-(n/3)},H (H shows more than 50% of control values)
same,Test B (control value class),Botrytis cinerea; [8],H (H shows more than 50% of control values)
same,Test E (control value class),Puccinia recondita; [9],H (H shows more than 50% of control values)
same,Test D (control value class),[1]; [10],H (H shows more than 50% of control values)
same,Test G (control value class),Plasmopara viticola; [11],L (L shows 50% or less of control values)
O=c1ccc(-c2c(F)cccc2Cl)c(-c2c(F)cccc2F)n1CC(F)F [Compound 406],Test C (control value class),Alternaia brassicicola; 250 ppm spray,H (H shows more than 50% of control values)
same,Test B (control value class),Botrytis cinerea; [3],H (H shows more than 50% of control values)
same,Test E (control value class),Puccinia recondita; [4],H (H shows more than 50% of control values)
same,Test D (control value class),[1]; [5],H (H shows more than 50% of control values)
same,Test G (control value class),Plasmopara viticola; [6],H (H shows more than 50% of control values)
CCn1c(-c2c(F)cccc2F)c(-c2cccc(F)c2Cl)ccc1=O [Compound 506],Test C (control value class),Alternaia brassicicola; 250 ppm spray,H (H shows more than 50% of control values)
same,Test B (control value class),Botrytis cinerea; [3],H (H shows more than 50% of control values)
same,Test E (control value class),Puccinia recondita; [4],H (H shows more than 50% of control values)
same,Test D (control value class),[1]; [5],H (H shows more than 50% of control values)
same,Test G (control value class),Plasmopara viticola; [6],H (H shows more than 50% of control values)
Cn1c(-c2c(F)cc(F)cc2F)c(-c2cc(F)ccc2F)ccc1=O [Compound 426],Test C (control value class),Alternaia brassicicola; 250 ppm spray,H (H shows more than 50% of control values)
same,Test B (control value class),Botrytis cinerea; [3],H (H shows more than 50% of control values)
same,Test E (control value class),Puccinia recondita; [4],H (H shows more than 50% of control values)
same,Test D (control value class),[1]; [5],H (H shows more than 50% of control values)
same,Test G (control value class),Plasmopara viticola; [6],L (L shows 50% or less of control values)
CCn1c(-c2c(F)cc(OC)cc2F)c(-c2cc(OC)ccc2Cl)cc(C)c1=O [Compound 771],Test C (control value class),Alternaia brassicicola; control value=100{1-(n/3)},H (H shows more than 50% of control values)
same,Test B (control value class),Botrytis cinerea; [8],H (H shows more than 50% of control values)
same,Test E (control value class),Puccinia recondita; [9],H (H shows more than 50% of control values)
same,Test D (control value class),[1]; [10],H (H shows more than 50% of control values)
same,Test G (control value class),Plasmopara viticola; [11],H (H shows more than 50% of control values)
